Data published in paper PMC4336329 (PLoS ONE, 2015).
The campaign covered roughly 310,000 compounds. About 2,200 (0.71%) showed an effect of 50% or more. The effect is printed as a negative number. Some of the results follow. Where a SMILES comes first, the peptide text is derived from it. The star is where a group is joined. Boc = CC(C)(C)OC(=O)*

These compounds were tested against human ether-à-go-go-related gene (hERG) potassium channel (human, UniProt Q12809) (assay: primary screen, population patch clamp on CHO cells stably expressing hERG).
Chain of human ether-à-go-go-related gene (hERG) potassium channel (Q12809 whole entry, looked up): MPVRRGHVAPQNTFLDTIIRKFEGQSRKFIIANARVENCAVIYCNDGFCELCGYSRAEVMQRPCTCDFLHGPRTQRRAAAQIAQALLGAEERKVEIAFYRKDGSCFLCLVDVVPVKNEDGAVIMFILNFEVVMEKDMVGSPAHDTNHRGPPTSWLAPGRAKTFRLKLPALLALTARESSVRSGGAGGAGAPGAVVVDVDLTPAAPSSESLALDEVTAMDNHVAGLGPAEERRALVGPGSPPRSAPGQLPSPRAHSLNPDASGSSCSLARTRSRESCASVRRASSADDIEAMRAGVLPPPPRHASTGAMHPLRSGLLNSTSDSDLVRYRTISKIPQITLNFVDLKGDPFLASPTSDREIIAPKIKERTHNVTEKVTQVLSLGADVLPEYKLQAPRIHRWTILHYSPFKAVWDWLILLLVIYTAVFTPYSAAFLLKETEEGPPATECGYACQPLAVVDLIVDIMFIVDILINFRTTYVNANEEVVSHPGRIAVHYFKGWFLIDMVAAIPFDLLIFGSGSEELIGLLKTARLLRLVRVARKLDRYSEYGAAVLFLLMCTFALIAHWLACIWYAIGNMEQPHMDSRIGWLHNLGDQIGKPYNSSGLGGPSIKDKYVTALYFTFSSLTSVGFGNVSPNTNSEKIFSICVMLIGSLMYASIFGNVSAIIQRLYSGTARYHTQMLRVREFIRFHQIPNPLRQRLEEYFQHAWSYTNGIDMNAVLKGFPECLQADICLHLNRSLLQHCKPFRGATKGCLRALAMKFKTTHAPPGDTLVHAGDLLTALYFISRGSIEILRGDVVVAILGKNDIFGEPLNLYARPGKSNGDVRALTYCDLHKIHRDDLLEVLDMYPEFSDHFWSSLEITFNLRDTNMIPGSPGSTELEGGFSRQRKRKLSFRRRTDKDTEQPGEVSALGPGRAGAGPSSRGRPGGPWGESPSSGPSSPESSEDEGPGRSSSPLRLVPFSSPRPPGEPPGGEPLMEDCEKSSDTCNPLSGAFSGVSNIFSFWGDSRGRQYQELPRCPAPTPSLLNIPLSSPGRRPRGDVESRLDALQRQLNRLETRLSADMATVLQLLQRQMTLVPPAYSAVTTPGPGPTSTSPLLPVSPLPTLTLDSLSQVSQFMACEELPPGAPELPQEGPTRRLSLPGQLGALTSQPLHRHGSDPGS

Row | SMILES | hERG current change (%, negative = inhibition) at 1uM
1 | CC(C)(C)NC(=O)CSc1nnc(-c2c[nH]c3ccccc23)o1 | 8.87%
2 | COc1ccc2cc(C(c3nnnn3C3CCCC3)N3CCOCC3)c3nnnn3c2c1 (centres unmarked) | -1.98%
3 | CC1(C)C(c2cccs2)=[N+]([O-])C2(CCCCC/C2=N\NC(N)=S)N1O (centres unmarked) | -1.94%
4 | O=C1/C(=C\c2ccccn2)SC(=S)N1Nc1ncc(C(F)(F)F)cc1Cl | 4.83%
5 | CC(=O)C1C(=O)C=C(c2cccs2)CC1c1ccccc1 (centres unmarked) | 9.11%
6 | O=C(NCCCN1CCN(c2ccccc2F)CC1)C1CCCN(S(=O)(=O)c2cnc[nH]2)C1 (centres unmarked) | 14.3%
7 | CCCCCN1C=CC(=C2C(=O)c3ccccc3C2=O)C=C1 | 8.12%
8 | CC(=O)C1=C(c2ccccc2)NC(=S)NC1c1cc(Cl)c(OC(C)C)c(Cl)c1 (centres unmarked) | 12.3%
9 | O=C(c1ccccc1)c1nnc(-c2ccccc2F)o1 | -16%
10 | Cc1cc(=O)[nH]c(N2CCN(c3ccc(Cl)cc3)CC2)n1 | 8.83%
11 | Cc1cc(C)nc(CCNC(=O)CC2C(=O)NCCN2Cc2ccccc2)n1 (centres unmarked) | 23.9%
12 | COC1=C(Nc2ccc(OC)cc2)C(=O)c2ccccc2C1=O | 13%
13 | CCOC(=O)c1c(N)nn(C(=O)C(C)C)c1-c1ccc(OC)cc1 | 15%
14 | C=CCN1C=C2C(=O)C(C)(OC(=O)CCC(=O)OC)C(=O)C=C2C=C1C1CC1 (centres unmarked) | 14.1%
15 | Cn1c(SCC(=O)N2CCCc3ccccc32)nnc1-c1c[nH]c2ccccc12 | 0.712%
16 | CSCCC(NC(=O)OC(C)(C)C)C(=O)NC(CC(C)C)C(N)=O (stereo not drawn) (Boc-Met-Leu-NH2; configuration not given here) | 11.4%
17 | CCC(=O)Nc1cc(Cl)ccc1N1CCN(C(=O)CC)CC1 | -9.02%
18 | CN(C)S(=O)(=O)c1cccc(NC(=O)CNC2CCCCC2)c1.O=C(O)C(=O)O | 8.12%
19 | CN(CC(=O)Nc1ccc(Cl)c(C(F)(F)F)c1)C(=O)CCCc1nc2ccccc2c(=O)[nH]1 | 13.2%

Row | SMILES | hERG current change (%, negative = inhibition) at 1uM
20 | Cc1ccc(C(=O)O)cc1-c1ccc(/C=C2\SC(=O)N(CC(=O)Nc3ccccc3)C2=O)o1 | 14.6%
21 | COCCCNc1nc2nonc2nc1N1CCN2CCCC2C1 (centres unmarked) | 13.6%
22 | CCOCCn1c(N2CCN(c3ccccc3)CC2)nc2c1c(=O)n(C)c(=O)n2C | 5.11%
23 | Cc1ccc(OCC(O)CN2CCN(Cc3ccc4c(c3)OCO4)CC2)c(C)c1.Cl (centres unmarked) | -18.6%
24 | CCN(CC)CCN(C(=O)c1ccc([N+](=O)[O-])cc1)c1nc2ccc(OC)cc2s1.Cl | 8.14%
25 | COCCn1c(SCC(=O)NCc2ccc3c(c2)OCO3)nc2ccccc2c1=O | -10.6%
26 | Cc1ccc2c(c1)N(CCC(=O)NC1CC1)C(=O)C(C)O2 (centres unmarked) | 13.5%
27 | Cc1ccc(NC(=O)CSc2nnc(N)s2)cc1S(=O)(=O)N1CCCCC1 | 12.7%
28 | Cc1ccc(C(=O)NNC(=O)C2CCN(Cc3ccccc3)CC2)cc1 | 7.73%
29 | COc1ccc(/C=N/Nc2nc(C)nc(N)n2)cc1 | -2.51%
30 | NC(=S)Nc1cccc2[nH]ccc12 | 8.1%
31 | CCOC(=O)CN1Cc2cccc(C(=O)O)c2C1=O | 8.67%
32 | C=C(C)COc1ccc(-c2n[nH]c(C)c2-c2ccc(OC)cc2)c(O)c1 | 11%
33 | CCCCCCCCNC(=O)/C(C#N)=C/c1ccc2c(c1)OCCO2 | 4.7%
34 | Cc1cccc(OCc2nnc(SCc3cc(=O)[nH]c4ccccc34)n2-c2ccccc2)c1 | 10.8%
35 | CCC(CC)c1nnc(NC(=O)C2CC(=O)N(c3ccc4c(c3)OCCO4)C2)s1 (centres unmarked) | 8.27%
36 | COC(=O)/C(=C(/F)Sc1cc(C)c(O)c(C)c1)C(F)(F)F | -16.5%
37 | O=C(O)C1=C[C@H](C2CC2)C[C@H](OCCCCO)O1 | 12.3%
38 | CC1=NN(Cc2ccccc2)C(=O)C1C(c1ccncc1)C(C#N)C#N (centres unmarked) | 10.3%

Row | SMILES | hERG current change (%, negative = inhibition) at 1uM
39 | Cc1csc(Sc2ccc(C(=O)OCC(=O)Nc3ccc(OC(F)(F)F)cc3)cc2[N+](=O)[O-])n1 | 7.43%
40 | NC(=O)C1CCCN(C(=O)Nc2cccc3ccccc23)C1 (centres unmarked) | 4.67%
41 | CCOc1c(OC)cccc1C1CC(=O)Nc2cc(OC)c(OC)cc21 (centres unmarked) | 9.23%
42 | Cl.Clc1ccc(-c2ccc(CNCc3ccccn3)o2)cc1 | -5.94%
43 | O=C(NC(=S)Nc1cccc(NC(=O)c2ccccc2)c1)c1cccc([N+](=O)[O-])c1 | 27.6%
44 | CCOC(=O)C1(Cc2ccc(OC)cc2)CCN(C(=O)[C@@H]2CCCN2C(C)=O)CC1 | 8.58%
45 | O=C(CCC(=O)c1ccccc1)Nc1cccnc1 | 7.13%
46 | CCOc1ccc(S(=O)(=O)Nc2cc(Cl)ccc2O)cc1 | 9.44%
47 | CCC(NC(=O)CCCc1ccccc1)c1ccccc1 (centres unmarked) | 13.9%
48 | Cc1ccc(C2=NNC(C(O)C(O)C(O)C(C)O)S2)cc1 (centres unmarked) | 9.44%
49 | O=C(NC(=O)c1ccccc1)NC(=O)c1ccccc1 | 8.16%
50 | CCN1CCN(CCCNC(=O)C2CCN(c3nnc(-n4c(C)ccc4C)s3)CC2)CC1 | 1.52%
51 | Cc1sc(N/N=C/c2ccco2)nc1-c1ccccc1 | 4.38%
52 | Cc1cc(C)c(NC(=O)CSc2nc3ncc(Cl)cc3[nH]2)c(C)c1 | 11.6%
53 | Cc1ccnc(NS(=O)(=O)Cc2ccccc2)c1 | 10.7%
54 | CC(=O)c1cn(CCOc2cc(C)ccc2C)c2ccccc12 | 15%
55 | COc1ccc(C2OC(=O)CC2C(=O)NC2CCCC(C)C2C)cc1OC (centres unmarked) | 17.2%
56 | CCN(CC(=O)Nc1c(F)cccc1F)C(=O)c1ccc2ccccc2n1 | -1.85%
